# Measured values: PubChem BioAssay AID1745853 (National Center for Advancing Translational Sciences (NCATS), 2022)
# Some of the results follow. Further columns of the screen follow, without active or inactive calls.
# Legend:
# Test in all cases: Primary Screen for Target Class Profiling of Small Molecule Inhibitors of Methyltransferases
# [1] = target: Glycine N-methyltransferase (Homo sapiens) (UniProt Q14749); conditions: purified enzyme, MTase-Glo SAH luminescence; measured here: GNMT inhibition; at 40 µM; stronger effect = lower value
# How it was run: (§1)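 Each enzyme was reacted with SAM and its substrate, with compounds tested once at 40 uM; SAH formed was read by MTase-Glo luminescence.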
# [2] = target: Guanidinoacetate N-methyltransferase (Homo sapiens) (UniProt Q14353); conditions: purified enzyme, MTase-Glo SAH luminescence; measured here: GAMT inhibition; at 40 µM; stronger effect = lower value
# How it was run: as §1
# [3] = target: Histamine N-methyltransferase (Homo sapiens) (UniProt P50135); conditions: purified enzyme, MTase-Glo SAH luminescence; measured here: HNMT inhibition; at 40 µM; stronger effect = lower value
# How it was run: as §1
# [4] = target: Nicotinamide N-methyltransferase (Homo sapiens) (UniProt P40261); conditions: purified enzyme, MTase-Glo SAH luminescence; measured here: NNMT inhibition; at 40 µM; stronger effect = lower value
# How it was run: as §1
# [5] = target: Phenylethanolamine N-methyltransferase (Homo sapiens) (UniProt P11086); conditions: purified enzyme, MTase-Glo SAH luminescence; measured here: PNMT inhibition; at 40 µM; stronger effect = lower value
# How it was run: as §1
# % is set by controls: 0 for no effect and ±100 for the full control effect.
Compound,"activity change, negative = inhibition [1] [%]","activity change, negative = inhibition [2] [%]","activity change, negative = inhibition [3] [%]","activity change, negative = inhibition [4] [%]","activity change, negative = inhibition [5] [%]"
CCOc1ccc(N2C(=O)Cn3cccc3C2C(=O)NC2CCCCC2C)cc1 (configuration not stated),12.4,1.75,10.9,1.16,3.4
CC(C)Cn1c(=O)c2ccc(C(=O)NC(C)C)cc2n2c(SCc3c(F)cccc3Cl)nnc12,-0.393,-3.31,9.29,-6.33,-1.48
CCc1cccc2c3c([nH]c12)[C@@](CC)(CC(=O)O)OCC3,-8.33,,0.074,,
CCN=C1N[C@@H]2[C@@H](O)[C@H](O)[C@@H](CO)O[C@@H]2S1,2.31,-3.28,-1.36,-13.9,-9.09
COc1cc(-c2cn(C3CCc4c(F)cccc4N(CC(F)(F)F)C3=O)nn2)ccc1-n1cnc(C)c1 (configuration not stated),-9.49,-4.03,-34.4,-28.9,-3.57
CCc1cccc(N2C(=O)c3c(NC(C)=O)c4cc(F)ccc4n3CC2(C)C(=O)NC2CCCC2)c1 (configuration not stated),-11.9,1.2,-7.8,-2.51,-5.03
CCOc1ccccc1CN1C(=O)c2cc3occc3n2CC1(C)C(=O)NC1CCCCC1 (configuration not stated),4.29,0,7.91,8.66,3.3
O=C(NCCN1CCN(c2cccc3c2OCCO3)CC1)c1ccc(F)cc1,-2.29,-7.19,8.63,-21.9,-3.55
CC(=O)Nc1c2n(c3ccc(F)cc13)CC(C)(C(=O)NC1CCCCCC1)N(C1CCCCC1)C2=O (configuration not stated),-6,2.76,0.354,-0.361,-4.36
COc1ccc(OC)c(S(=O)(=O)N2CCc3nc(-c4ccc(Cl)cc4)ncc3C2)c1,17.5,6.02,13.5,9.97,11.5
O=C(NCCCNc1nc(Nc2cccc(CN3CCOCC3)c2)ncc1C1CC1)C1CCC1,0.913,5.85,-62.1,-20.6,-13.1
CC1=C(CO)CC(C(C)C2CCC3C4CC=C5CC(OC6OC(COC7OC(CO)C(O)C(O)C7O)C(O)C(O)C6O)CC(O)C5(C)C4CCC23C)OC1=O (configuration not stated),6.37,8.03,9.09,-7.67,8.42
CN1CCC(N2CC3(CCC2=O)CCN(C(=O)c2ccccn2)CC3)C1 (configuration not stated),-0.447,-4.57,3.05,-1.66,2.23
COc1cc(C#N)ccc1S(=O)(=O)Nc1ccc2c(c1)cc(C)c(=O)n2C,-2.3,-6.67,10.9,-16.7,3.56
COc1ccc(NC(=O)CCc2nnc3n(CC(C)C)c(=O)c4ccccc4n23)cc1,-7.23,0,11,11.6,2.05
CCOC(=O)c1cc2n(n1)CC(C)(C(=O)NCc1ccc(Cl)cc1)N(CCc1ccco1)C2=O (configuration not stated),2.33,6.88,6.59,-0.574,3.62
O=C(CCc1nnc2n(Cc3ccc(Cl)cc3)c(=O)c3ccccc3n12)N1CCN(c2ncccn2)CC1,-14.2,5.95,5.91,-13.9,0.877
COc1ccc(NC(=O)CCC2CCCN(C(=O)c3ccccc3SC)C2)cc1Cl (configuration not stated),-3.6,-0.958,-23.9,-5.73,-4.32
CN1C(=O)c2cc(C(=O)NC3CCCCC3)nn2CC1(C)C(=O)NC1CCCCCC1 (configuration not stated),4.74,0,3.39,8.5,2.02

Compound,"activity change, negative = inhibition [1] [%]","activity change, negative = inhibition [2] [%]","activity change, negative = inhibition [3] [%]","activity change, negative = inhibition [4] [%]","activity change, negative = inhibition [5] [%]"
CCc1cc2c(cc3n2CC(C)(C(=O)NC2CCC(C)CC2)N(C(C)CCc2ccco2)C3=O)s1 (configuration not stated),-23.7,4.52,0.297,-41.2,-1.13
COc1ccc(CNC(=O)c2cc3n(n2)CC(C)(C(=O)NC2CCCCCC2)N(C)C3=O)c(OC)c1 (configuration not stated),-3.03,0,-3.75,-6.91,-6.6
O=C(NOCC1CC1)c1cc(Br)c(F)c(F)c1Nc1ccc(I)cc1Cl,1.41,8.81,6.99,-9.26,-3.33
COC(=O)C1=CO[C@@H](O[C@@H]2O[C@H](CO)[C@@H](O)[C@H](O)[C@H]2O)[C@@H]2[C@@H](C)[C@@H](OC(=O)/C=C/c3ccccc3)[C@@H](O)[C@H]12,3.25,5.26,4.83,-6.83,6.32
CCN1CCN(C(=O)c2ccc3nnc(-c4cccnc4)n3c2)CC1,-6.46,-14.9,-4.79,-12.1,-9.56
CCN1C(=O)c2c(C(=O)NCc3ccc(OC(C)C)cc3)ncn2CC1(C)C(=O)NC1CCCC1 (configuration not stated),-11.8,2.07,-4.34,-5.73,-5.69
CCCn1c(=O)c2ccccc2n2c(=O)n(Cc3ccc(F)cc3Cl)nc12,2.27,1.19,6.38,-8.96,3.87
CCCCN(CC)CCN1C(=O)c2ccc(-c3ccco3)n2CC1(C)C(=O)NC1CCCCCC1 (configuration not stated),-2.78,0.148,-3.23,-10.9,-2.13
O=C1NCCOCCN(C(=O)c2nccc3ccccc23)[C@H]2CCC[C@@H]12,-4.92,-2.11,-1.4,-8.99,-19.3
COCCCN1C(=O)c2cc(-c3ccc(C(C)C)cc3)nn2CC1(C)C(=O)NC1CCCCC1 (configuration not stated),-10,3.9,3.66,-2.98,1.7
O=C(NCC(=O)N1CCN(Cc2ccccc2)CC1)c1cccc(-c2ccsc2)c1,-7.07,-1.53,-2.65,-6.61,-25.3
CN(CCN1C(=O)c2cc3sccc3n2CC1(C)C(=O)NC1CCCCCCC1)C1CCCCC1 (configuration not stated),2.57,3.62,0.984,8.34,-1.23
CC(C)OCCCn1c(=O)c2cc(Cl)ccc2n2c(SCc3ccccc3Cl)nnc12,1.26,0,3.43,2.53,4.09
CNc1cccc(CCOc2ccc3c(c2)CN(CC(F)(F)F)C(=O)[C@H](CC(=O)O)C3)n1,-1.41,-5.17,6.84,-19.2,-1.05
O=[S+]1([O-])NC2(CCN(Cc3ccoc3)CC2)COc2ccccc21,-2.72,-5.23,-4.92,-5.3,-3
CC1CC2(O)OC(=O)C3=C2C(CCC3)[C@@]12C[C@@H](c1ccoc1)OC2=O (some centres not stated),2.85,0.488,8.46,-12.9,-4.11
CCc1noc(-c2nc(Cc3cccc(F)c3)no2)n1,-2,-7.16,1.89,-3.17,-0.48
Cc1ccc(NC(=O)c2cc3n(n2)CC(C)(C(=O)NC2CCCCCC2)N(C)C3=O)cc1 (configuration not stated),7.23,3.15,4.5,6.81,-0.718
